Hit rate of the full screen: of about 110,000 compounds, about 230 (0.21%) showed an effect of 50% or more. Some of the results follow.
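Further: 30 min substrate incubation versus DMSO and 10 µM JCP410 controls.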

Chain of DPAP1 (Q8IIJ9 whole entry, looked up): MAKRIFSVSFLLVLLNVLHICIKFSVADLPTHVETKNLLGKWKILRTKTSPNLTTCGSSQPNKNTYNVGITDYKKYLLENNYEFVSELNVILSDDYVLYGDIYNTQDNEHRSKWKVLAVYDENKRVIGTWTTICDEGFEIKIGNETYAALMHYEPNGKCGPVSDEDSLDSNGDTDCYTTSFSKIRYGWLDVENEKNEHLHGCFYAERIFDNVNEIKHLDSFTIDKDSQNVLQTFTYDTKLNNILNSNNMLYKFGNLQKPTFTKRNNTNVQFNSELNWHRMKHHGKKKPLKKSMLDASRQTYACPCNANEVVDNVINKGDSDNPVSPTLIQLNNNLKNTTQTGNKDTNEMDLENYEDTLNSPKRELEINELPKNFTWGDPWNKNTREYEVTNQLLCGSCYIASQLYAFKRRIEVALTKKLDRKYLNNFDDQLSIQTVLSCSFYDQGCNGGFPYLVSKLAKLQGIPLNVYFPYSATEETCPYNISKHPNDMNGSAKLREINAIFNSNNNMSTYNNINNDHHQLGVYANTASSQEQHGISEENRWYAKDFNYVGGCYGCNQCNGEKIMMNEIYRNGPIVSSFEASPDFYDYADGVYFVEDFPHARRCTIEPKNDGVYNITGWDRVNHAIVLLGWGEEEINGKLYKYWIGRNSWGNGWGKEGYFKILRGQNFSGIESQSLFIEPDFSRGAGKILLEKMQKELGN

The experiment addresses DPAP1 (Plasmodium falciparum, UniProt Q8IIJ9). As to the kind of experiment: primary screen, percent inhibition; read by cleavage of a fluorogenic dipeptide substrate; higher = more effect of the substance. Also on record: species or system P. falciparum D10 trophozoite lysates; single well.
As to `CCc1nc2ccc(C(=O)NCCc3ccc(Cl)cc3)cc2nc1CC`, the “% Inhibition @ 10 uM” value was -6.82%. With `CC(C)CN(CC(C)C)c1ncnc2ccccc12` the figure was 1.15%; with `CC(C)Oc1ccc(C2N3CCCN23)cc1` (stereo not shown), -2.88%. In the case of `Cc1cc(-n2nc(C)cc2C)nc(-c2ccccc2)n1` it was 0.215%; in that of `CC1(C)OC(C(=O)NC2CCCCC2)C(C(=O)NC2CCCCC2)O1` (stereo not shown), 13%; in that of `CC(C)C[C@H](/N=C(\NCC(F)(F)F)c1ccccc1)C(=O)NCC#N`, -1.82%. Take `COc1cccc(CN2CCN(Cc3cccnc3)CC2)c1OC`: the “% Inhibition @ 10 uM” value is -4.59%. In the case of `COc1ccc(Br)cc1CN(CCN(C)C)Cc1ccccc1` it was -1.5%.

Turning to `CC(C)(C)c1cc(N2CCCCC2)ncn1`, the “% Inhibition @ 10 uM” value is 3.24%. `Cc1cc(O)nc(SCC(=O)Nc2cccc(Cl)c2C)n1`: the “% Inhibition @ 10 uM” value was 0.673%. In the case of `Cc1cc(C)c(C#N)c(SCC(=O)Nc2ccccc2Br)n1` it was 2.36%. Take `COc1cccc(CN2CCN(c3ccc([N+](=O)[O-])cc3)CC2)c1`: the “% Inhibition @ 10 uM” value is on record as -0.261%. In the case of `CCNc1nc(N2CCOCC2)nc(N(c2ccccc2)c2ccccc2)n1` it was 1.29%. With `COc1ccc(OC)c(NC2=NS(=O)(=O)c3ccccc32)c1` the figure was 8.76%; with `CC(=O)Nc1ccc(NC(=O)Cc2ccccc2)cc1`, -5.61%; with `Cc1nc2c(sc3nc(C)c(C)c(C)c32)c(=O)o1`, -3.63%.

For the compound `Cn1c(=O)c2c(ncn2CC(=O)N2CCN(Cc3ccc4c(c3)OCO4)CC2)n(C)c1=O`, the “% Inhibition @ 10 uM” value is 1.84%. With `COC(=O)c1c(NC(=O)Cc2coc3c(C)c(C)ccc23)sc2c1CCCC2` the figure was -0.671%. In the case of `COC(=O)c1ccc2c(c1)C(=O)/C(=C/C=C/c1ccccc1)O2` it was 0.291%. As to `O=C(Nc1c2c(nc3c1CCC3)CCCC2)c1ccccn1`, the “% Inhibition @ 10 uM” value is reported as -5.07%. In the case of `N/C(=N\c1ccc2c(c1)OCCO2)Nc1nc(O)c2c(n1)CCC2` it was 3.67%; in that of `Cc1ccccc1CSc1nc2c(c(=O)n(C)c(=O)n2C)n1C`, -3.63%. With `CC(C)(C)c1ccc(-c2noc(CCC(=O)N3CCOCC3)n2)cc1` the figure was 1.25%. In the case of `COc1ccccc1NC(=O)c1ccccc1NC(=O)c1ccccc1O`, the “% Inhibition @ 10 uM” value is reported as 7.35%.

Take `COc1ccc(C(O)(CCN2CCOCC2)c2ccccc2)cc1` (stereo not shown): the “% Inhibition @ 10 uM” value came out at 0.558%. With `Fc1ccc2[nH]c3nc(S)nnc3c2c1` the figure was 56%. Take `CC(NC(=O)Cn1ncc2c(Cl)cccc21)c1ccc2c(c1)OCCO2` (stereo not shown): the “% Inhibition @ 10 uM” value was 0.596%. As for `COc1ccc(S(=O)(=O)Cc2ccc(C(=O)N3CCN(c4ccccn4)CC3)o2)cc1`, the “% Inhibition @ 10 uM” value is listed as -1.28%.

Turning to `O=C(CCn1cnc2onc(-c3ccc(F)cc3)c2c1=O)N1CCC(Cc2ccccc2)CC1`, the “% Inhibition @ 10 uM” value stood at 3.1%. In the case of `C=CCNC(=O)c1cc(-c2cccc(C)c2)nc2ccccc12` it was -7.08%. With `CCN1CCN(C(=O)c2ccccc2C(=O)O)CC1` the figure was -2.67%; with `O=C1C(=O)N(C2CCCCC2)C(=O)N1c1ccc2ccccc2c1`, -4.61%; with `Cc1ccc(C(=O)Nc2ccc([N+](=O)[O-])cc2)cc1`, -0.351%. Take `COc1ccc(/N=c2\oc(C)cc(O)c2C(C)=O)c(OC)c1`: the “% Inhibition @ 10 uM” value was found to be 2.36%. In the case of `Cc1cc(-c2cccnc2)c2c(N)c(C(=O)C34CC5CC(CC(C5)C3)C4)sc2n1` it was 2.38%; in that of `COCCNC(=O)C1CC(=O)N(Cc2ccc(OC)cc2)C1` (stereo not shown), 1.62%; in that of `Cc1cc(C2C(C#N)=C(N)N(c3cccnc3)C3=C2C(=O)CC(c2ccccc2)C3)c(C)s1` (stereo not shown), -4.93%. In the case of `CC(C)CC(C(=O)O)N1C(=O)c2ccc(C(=O)O)cc2C1=O` (stereo not shown) it was -2.6%; in that of `CSc1ncc(C(=O)NC(C)c2ccccc2)c(C(F)(F)F)n1` (stereo not shown), -3.72%; in that of `O=C(NCc1cccnc1)C1c2ccccc2C(=O)N1Cc1ccco1` (stereo not shown), 4.63%. With `COc1ccc(/C=C2/C(=O)N(c3ccccc3)N=C2C)cc1` the figure was -2.59%. Regarding `CC(C)(C)C(=O)/N=C1/SC2CS(=O)(=O)CC2N1Cc1ccccc1` (stereo not shown), the “% Inhibition @ 10 uM” value was -2.92%. On to `Cn1c(=O)c2c(-c3ccccc3)n3c4ccccc4nnc3c2n(C)c1=O`, for which the “% Inhibition @ 10 uM” value is given as -2.65%. With `CC(C)(O)C#CC1(C)CCCC(C)(C)O1` (stereo not shown) the figure was 1.63%; with `COc1ccccc1-c1nc2s/c(=C\c3ccc(-c4ccc(C(C)=O)cc4)o3)c(=O)n2n1`, 8.44%. On to `CCC(C)NC(=O)c1ccccc1NC(=O)COc1ccccc1OC` (stereo not shown), for which the “% Inhibition @ 10 uM” value came out at 2.06%. In the case of `CSc1ccc(C2C3=C(O)CC(C)(C)CC3=NC3=C2C(=O)CC(C)(C)C3)cc1` (stereo not shown) it was -2.54%; in that of `COc1cccc(/C=C/C2=NN(c3cccc(Cl)c3)C(c3cccc(OC)c3OC)C2)c1OC` (stereo not shown), 2.38%; in that of `N#CC1=C(N)OC2=C(C(=O)CCC2)C12C(=O)Nc1cc(Cl)ccc12` (stereo not shown), 0.317%. In the case of `Cc1c(C(=O)N2CCOCC2)oc2c1-c1nn(CC(=O)NCc3ccccc3Cl)cc1CC2` it was -3.46%.

Consider `O=C1c2ccccc2C(=O)N1CNc1cccc(C(F)(F)F)c1`, for which the “% Inhibition @ 10 uM” value worked out at 4.8%. With `CCCCOC(=O)Nc1ccc(S(=O)(=O)Nc2ncccn2)cc1` the figure was 2.95%; with `CCOc1ccccc1-c1cc(C(=O)O)c2c(-c3ccccc3)[nH]nc2n1`, 1.09%. Consider `O=S(=O)(c1ccc(F)cc1)N1CCC(c2nnnn2-c2ccccc2)CC1`, for which the “% Inhibition @ 10 uM” value is on record as -2.84%. With `COc1ccc2sc(C)[n+](CCC(=O)O)c2c1` the figure was -3.5%; with `OCCN(CCO)Cc1c(Cl)cccc1Cl`, 6.32%. In the case of `CCN1C(=O)C2NN=C(C(=O)OC)C2C1=O` (stereo not shown) it was -9.37%; in that of `COc1ccc(S(=O)(=O)Cc2ccc(C(=O)N3CCN(C(=O)c4ccco4)CC3)o2)cc1`, -4.53%. Consider `CCCOc1ccc(Cl)cc1/C=C1/C(=O)ON=C1C`, for which the “% Inhibition @ 10 uM” value is listed as -0.386%. With `CCC1CCCCN1CCCNC(=O)CNC(=O)Cn1ccc2ccccc2c1=O` (stereo not shown), the “% Inhibition @ 10 uM” value was -7.33%. As for `O=C(CN1C(=O)C2C3c4ccccc4C(c4ccccc43)C2C1=O)NC1CCCCC1` (stereo not shown), the “% Inhibition @ 10 uM” value is reported as -7.15%. With `CCOc1ccc(C(=O)Nc2nc3ccc(S(C)(=O)=O)cc3s2)cc1` the figure was -2.53%; with `COCCNS(=O)(=O)c1ccc2oc(=O)c3ncn(C)c3c2c1`, -7.48%; with `CCOc1cc(/C=C2\SC(=N)N(c3nonc3N)C2=O)ccc1O`, 4.81%.
